# Experimental data: the supplement of paper PMC12632987
# The full ranking holds about 2,300 sequences; the median of “median log2 fold change of GCK-ALFA target abundance (FLAG IP / Myc IP barcode read proportion)” is about 0.095, and the lowest 2% start at about -0.47. The list shows a part of the results.
# B1: LC3A_28_1065 (protein)
# chain: NKIEEELEKALKEAREAAAAGEEVTVTLTIDKNSTEEDVEKVLETMEEIAEIAKDSPAVSIIVDVDNPNKEEVTKKIAEKGDELEKKYPNVTVLIALSEE
# B2: LC3A_147_411 (protein)
# chain: WRVTVDVDILTKNAEEEVIEYFKELVEELRAKGYEVELEIEVEKLPDGETYIKVKITVYAPTEEEAQAAADYILDKIDEMEEELKDKILGSLISVEIEKE
# B3: LC3A_free_0_2115 (protein)
# chain: KKSVVEVVVILDDKTSEEKAKEFYEELKKKAEELAKKYGWEVEVELSKVDGSWVITIRLTSESEDIDKALEVADELSKAAEEIAKKLGLDATIYESVYLE
# B4: LC3A_3_1511 (protein)
# chain: MEEFIEKVRELLKSFGASEEVIELSEKALKLLLERGYEKAAEKFFELLKEAKDLSNELLLEFAEEVLELLESTDLSEEEIIKEIEEIFKTTKNESEIEEL
# B5: LC3A_28_807 (protein)
# chain: SPVRENVERAREEARRQIERGEPVFVEITLPADATPEEIEYVAEAIREIAREAAEAGIESVDVVVDSANNQEAITAISETEDRLRAEGLPINVIIALDEP
# B6: LC3A_17_536 (protein)
# chain: MEELREELEEALEEAKKLVEQLKKYDPEAAKEFEKKLKEIEKLIEEGKLREAAEALEKLARELADRIDSLKWEDPVEQEVLLMEANGIELRAIGILLKLD
# B7: LC3A_6_2058 (protein)
# chain: KVVTVTVDILLKEEKLEEGKKLLKEKVEKIEKELKEKAKELGKKLLSVKIEEGEDGLHITVTFEAEYHPEMEKKMLELADELVEELEPVSEASMISYEVT
# B8: LC3A_3_1647 (protein)
# chain: PEEEVEETVELLREAGHSEETIEAFRETAEALLERGYEEALRVLIEETRELLDLPDEILLAMLEEVLRVIKEEDLSEEEVIEEIRRIARIARSEGEIIEL
# B9: LC3A_28_948 (protein)
# chain: MTIEEQVEKALKEAKEAKEKNEPVVITLKVGGGATQEDVDLVIETIKEIAELHKDIDGVSIIVDVDGGVPQEFVDRIADTLDEVEEKYPNINAILALDED
# B10: LC3A_147_444 (protein)
# chain: MIAELIVDILTDNSKEEVIKALKEVEEELKKKGYNVEVEIKVEKIDENTYYIEVTFTARGVSEEEAKKFLEEAIELLDKMEEKLKDKILGSIISGEIIEE
# B11: LC3A_3_1454 (protein)
# chain: MEELKKELLKILEENGFSEETKKAALELFKELEKKGYINAMKTLIEEMKKMKDVSSEIALDMFKELLEIVKTKDLSEEEIIKEIESLAAAAIAEQEIIEL
# B12: LC3A_3_1675 (protein)
# chain: LEEAVQRLEDAERAAGASEEEIARLREAVLRLAEVSSEKVTLHLIELLLEASDVPAEEKIETVEDIVATIEKENLSEEEQLELVESEVSAARKATEIEEL
# B13: LC3A_3_1414 (protein)
# chain: MEEELKAALEALKEAGHSEETLKALEELVKELLERGAEEEAKRVLELVLEAKDISSELLLEVLKEALRLLTEEKKSPEEVIKELERELRIARSEQEIIEL
# B14: LC3A_3_1774 (protein)
# chain: AEELIARARALLEAQGRSPETIAAAEAAIRALLERGFEEAARTFIALLEENADLPDEELLAMAREILHVVETQDLTEEEVIARIREEARLARLAHEMDSL
# B15: LC3A_free_26_2158 (protein)
# chain: EKFVDIAAIDEALDLLEKAKKLLEEQGGEAKELAELVKEAKKLVEKETLESLKKAAELLKEIKKLIEEKLKLPEEVKKELLKLAEEAKEKVEEVIEIMES
# B16: LC3A_free_0_2098 (protein)
# chain: TTVVVEVVAISEEKLPPEDVEKVLEELNELAERIEKEKGWETEVEHAEIDGRNVFTLTVRSEDATIDEGLEIADEIADRVEEIFEELGAEVTIYESVYEE
# B17: LC3A_28_1158 (protein)
# chain: SSIEKEIEEAKKKLEEAIAAGKDEVIVIKVDGTATQEDIEKLIKALEELAKLGEEHGVTSIIIDVDKDVKQEHIDKIAKAAEEIEKKYPKINIIIALSDE
# B18: LC3A_3_1873 (protein)
# chain: LEEELEETLAALRAAGASEETLELFRRNMELLRERGYEEAARTFIEEMRELLGAPAELLLDFAREVLELLENNDLSEEELIKEIREIARLTRNEAEIEEL
# B19: LC3A_74_2075 (protein)
# chain: KLTPEESETILEGLAIAELARIKAEEDPSRREELLKAAEELRELAKEIIKKAGLDEELYESGGEVLALLLDDKEKLSVEEVLKRLKEKIEELKKILKKLE
# Target: MAP1LC3A, Q9H492
# Test: median log2 fold change of GCK-ALFA target abundance (FLAG IP / Myc IP barcode read proportion) (log2 ratio); each designed protein is fused to an ALFA-tag nanobody in HEK293 cells to bring the named protein to FLAG-tagged glucokinase (GCK); Myc marks an untargeted standard; higher = target protein stabilised (more abundant)
# Details: target protein: 3xFLAG-MCP-GCK-ALFA reporter; HEK293 landing pad (RPLP)
# Method in brief: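 Binders fused to an ALFA nanobody were recombined as a library into HEK293 landing-pad cells, which were induced with 2 μg mL^−1 doxycycline and then transfected to express a FLAG-tagged target and a Myc-tagged standard. After 48 h, circular RNA barcodes recovered by anti-FLAG and anti-Myc immunoprecipitation of lysates were reverse transcribed, amplified and sequenced. Each binder's target abundance is the median log2 ratio of FLAG to Myc barcode read proportions, from barcodes present at ≥10^−7 in both replicates, binders carrying ≥3 barcodes per replicate, a 10^−6 pseudocount and pooled replicates.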
row,Binder,median log2 fold change
1,B1,0.281
2,B2,-0.213
3,B3,-0.145
4,B4,0.128
5,B5,-0.0721
6,B6,0.194
7,B7,0.0685
8,B8,0.138
9,B9,0.198
10,B10,-0.427
11,B11,0.232
12,B12,0.262
13,B13,0.315
14,B14,0.242
15,B15,0.0848
16,B16,0.28
17,B17,0.187
18,B18,0.235
19,B19,-0.0499
